From the supplement of paper PMC4604168 (melanoma cell lines)
The list shows a part of the results. Single values are uncertain, as repeats are few or missing.

What was measured:
Test in all cases: cell count relative to DMSO control; melanoma cells; higher = more viable cells
Conditions in all cases: library dose: standard library concentration; 72 h
[1] = test system: G361
[2] = test system: IPC-298
[3] = test system: IST-MEL1
[4] = test system: LB2518-MEL
[5] = test system: LOXIMVI
[6] = test system: MEL-HO
[7] = test system: MZ2-MEL
[8] = test system: MeWo
[9] = test system: RPMI7951
[10] = test system: RVH-421
[11] = test system: SkMel28
[12] = test system: SkMel2
[13] = test system: SkMel30
[14] = test system: SkMel5
[15] = test system: UACC257
[16] = test system: UACC62
[17] = test system: WM115
[18] = test system: WM1716
[19] = test system: WM1745
[20] = test system: WM3526
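Further: cells treated in 1,536-well plates, then fixed and DAPI-stained, with nuclei counted from automated high-throughput microscope images.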

SMILES	cell count [1] [%]	cell count [2] [%]	cell count [3] [%]	cell count [4] [%]	cell count [5] [%]	cell count [6] [%]	cell count [7] [%]	cell count [8] [%]	cell count [9] [%]	cell count [10] [%]	cell count [11] [%]	cell count [12] [%]	cell count [13] [%]	cell count [14] [%]	cell count [15] [%]	cell count [16] [%]	cell count [17] [%]	cell count [18] [%]	cell count [19] [%]	cell count [20] [%]
O=C(/C=C/c1cccnc1)NCCCCC1CCN(C(=O)c2ccccc2)CC1 + Cn1cc(C2=C(c3cn(C4CCN(Cc5ccccn5)CC4)c4ccccc34)C(=O)NC2=O)c2ccccc21 [Enzastaurin] (first compound 0.05 µM, partner dose 4 µM)	2.24	28.9	61.5	60.9	80.7	41.4	33.2	86.7	82.3	33.2	75.4	8.84	91.7	86.1	107	89.5	101	80	65.7	77.9
NC(=O)c1ccc(N(C(N)=O)c2c(F)cccc2F)nc1-c1ccc(F)cc1F + C[As](C)SC[C@H](NC(=O)CC[C@H](N)C(=O)O)C(=O)NCC(=O)O [Darinaparsin] (first compound 2 µM, partner dose 2 µM)	80.7	92.2	104	79.6	110	96.8	98.4	67.1	145	142	80.2	104	76	59.6	102	92.8	87.1	83.9	112	74.7
COc1ccc(-c2ccc3c(N4CCOCC4)nc(N4C[C@@H](C)O[C@@H](C)C4)nc3n2)cc1CO + C/C(O)=C(\C#N)C(=O)Nc1cc(Br)ccc1Br [LFM-A13] (first compound 0.1 µM, partner dose 10 µM)	87.3	75.4	80	86.4	79.9	87.2	83.1	80.5	65.1	75.1	55.3	80.7	80.7	60.4	94.2	55.2	68.4	109	74.9	81.2
COc1ccc(-c2ccc3c(N4CCOCC4)nc(N4C[C@@H](C)O[C@@H](C)C4)nc3n2)cc1CO + O=C(Oc1ccc([N+](=O)[O-])cc1)N1CCC(C(O)(c2ccc3c(c2)OCO3)c2ccc3c(c2)OCO3)CC1 [JZL184] (first compound 0.1 µM, partner dose 5 µM)	112	79.8	99.8	106	108	84.1	96.5	79.7	96.7	125	105	89.5	98.1	71.1	86	99.7	80.1	91	106	78.3
CCCCCCCCc1ccc(CCC(N)(CO)CO)cc1 [fingolimod] + N.N.[Cl][Pt][Cl] [cisplatin] (first compound 10 µM, partner dose 8 µM)	1.13	43.6	7.69	0.183	18.6	18.8	62.4	45.5	0.741	2.59	20	7.5	8.25	61.4	74.2	20.8	11.6	53.2	17.1	45.6
Nc1cccc2c1CN(C1CCC(=O)NC1=O)C2=O (centres undefined) [lenalidomide] + Cc1cc(SCc2sc(-c3ccc(C(F)(F)F)c(F)c3)nc2C)ccc1OCC(=O)O [GW0742] (first compound 5 µM, partner dose 10 µM)	106	101	88.2	102	115	105	119	101	90	76.9	89.1	91.6	101	124	88.7	120	74.6	110	87.1	90.8
O=S(=O)(c1ccccc1)N(CC(F)(F)F)c1ccc(C(O)(C(F)(F)F)C(F)(F)F)cc1 + Cc1cc(SCc2sc(-c3ccc(C(F)(F)F)c(F)c3)nc2C)ccc1OCC(=O)O [GW0742] (first compound 7 µM, partner dose 10 µM)	66.8	86.2	107	109	93.2	96.1	100	91.8	35.6	94	80.1	92.1	112	76.3	84.1	83.4	105	122	83.1	82.6
Cc1ccc(NC(=O)c2cccc(N(C)C)c2)cc1NC(=O)c1ccc(O)cc1 + Cc1cc(SCc2sc(-c3ccc(C(F)(F)F)c(F)c3)nc2C)ccc1OCC(=O)O [GW0742] (first compound 10 µM, partner dose 10 µM)	84.4	80.8	84	84.3	77.9	77.2	72.7	78.6	76.5	117	88.4	90.9	93.4	76.3	83.4	101	91.2	102	70.7	71.1
Nc1cccc2c1CN(C1CCC(=O)NC1=O)C2=O (centres undefined) [lenalidomide] + O=C(Oc1ccc([N+](=O)[O-])cc1)N1CCC(C(O)(c2ccc3c(c2)OCO3)c2ccc3c(c2)OCO3)CC1 [JZL184] (first compound 5 µM, partner dose 5 µM)	109	102	111	132	105	92.6	108	87.9	74.8	107	110	95.6	91	75.2	97.9	56.3	95.2	79.5	83.8	66.2
Cn1cnc2c(F)c(Nc3ccc(Br)cc3Cl)c(C(=O)NOCCO)cc21 [selumetinib] + Cn1cc(C2=C(c3cn(C4CCN(Cc5ccccn5)CC4)c4ccccc34)C(=O)NC2=O)c2ccccc21 [Enzastaurin] (first compound 0.075 µM, partner dose 4 µM)	69.6	58.7	69.5	65.6	104	90.4	83.6	73.3	59.3	125	59.8	69.2	75.1	88.2	115	51.8	76.1	67.1	81.3	68.3
CC[C@]1(O)C[C@H]2CN(CCc3c([nH]c4ccccc34)[C@@](C(=O)OC)(c3cc4c(cc3OC)N(C=O)[C@H]3[C@@](O)(C(=O)OC)[C@H](OC(C)=O)[C@]5(CC)C=CCN6CC[C@]43[C@@H]65)C2)C1 [vincristine] + Cn1cc(C2=C(c3cn(C4CCN(Cc5ccccn5)CC4)c4ccccc34)C(=O)NC2=O)c2ccccc21 [Enzastaurin] (first compound 0.0005 µM, partner dose 4 µM)	71.2	87.7	45.4	44.5	67.7	75.8	62.3	69.1	16.6	40.8	34.4	47.4	41.9	47.8	70	42.9	46.3	36.8	45.6	51.2
Cc1cc(N2CCOCC2)cc2[nH]c(-c3c(NC[C@@H](O)c4cccc(Cl)c4)cc[nH]c3=O)nc12 + C/C(O)=C(\C#N)C(=O)Nc1cc(Br)ccc1Br [LFM-A13] (first compound 1 µM, partner dose 10 µM)	79.1	102	104	99.2	76.8	83.9	90.3	81	70.3	116	103	96.9	75.1	75.6	95.9	79.1	86.3	97	59.1	85.2
O=C(Nc1ccccc1)c1cc([N+](=O)[O-])ccc1Cl + Cc1cc(SCc2sc(-c3ccc(C(F)(F)F)c(F)c3)nc2C)ccc1OCC(=O)O [GW0742] (first compound 10 µM, partner dose 10 µM)	81.6	96.1	99.6	65	51.5	83.7	80.3	75.6	40.8	85.9	91.6	91.1	85	80.3	82.5	86	90.7	122	67.6	98.7
NC(=O)c1ccc(N(C(N)=O)c2c(F)cccc2F)nc1-c1ccc(F)cc1F + C[C@]12O[C@H](C[C@]1(O)CO)n1c3ccccc3c3c4c(c5c6ccccc6n2c5c31)CNC4=O [Lestaurtinib] (first compound 2 µM, partner dose 0.02 µM)	71.1	81.6	127	85.8	106	79	106	69.6	121	97.8	68.5	96.4	72	56.2	91.3	67.3	66.5	93.6	77.9	63.5
CN(NC(=O)CC(=O)NN(C)C(=S)c1ccccc1)C(=S)c1ccccc1 + Cc1cc(SCc2sc(-c3ccc(C(F)(F)F)c(F)c3)nc2C)ccc1OCC(=O)O [GW0742] (first compound 0.03 µM, partner dose 10 µM)	38.8	71.6	19	22.4	165	68.7	95.4	10.3	51	87.4	10.1	66.2	81.3	52	96.8	75.2	30.4	89.3	19.6	93.7
CCCCCCCCc1ccc(CCC(N)(CO)CO)cc1 [fingolimod] + O=C(Oc1ccc([N+](=O)[O-])cc1)N1CCC(C(O)(c2ccc3c(c2)OCO3)c2ccc3c(c2)OCO3)CC1 [JZL184] (first compound 10 µM, partner dose 5 µM)	0.4	76.3	9.57	0.425	14	7.01	81.2	5.68	2.66	7.2	0.432	1	6.24	25.9	59	7.59	9.45	7.04		21.7
